# Experimental data published in PubChem BioAssay AID624417 (National Center for Advancing Translational Sciences (NCATS), 2012).
# In all, about 410,000 compounds went through this assay and about 6,400 (1.6%) were called active. Inconclusive means that the source gave no clear call. Such entries were picked first, then a sample of the others. The call rests on the fitted dose curve; in most records, active means well fitted inhibition curve with a large enough effect; inconclusive means small, poorly fitted or top-dose-only effect; inactive means no such curve, though single readings can be large or run the other way. No potency is given beside an inconclusive call; the fits are too rough.
# Biological target: Glucagon-like peptide 1 receptor (Homo sapiens) (UniProt P43220)
# Assay: qHTS of GLP-1 Receptor Inverse Agonists (Inhibition Mode); further: nearly all actives have a fitted effect of over 55% in size
# Conditions: HEK293 GLP-1R CRE-luciferase, luminescence, 24 h, GLP-1R form is constitutively active; activity change, negative = inhibition: at 38.3 µM (top of the series) unless noted
# Procedure, shortened: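 Cells are plated, allowed 12 hours at 37 deg C, then treated with compounds for 24 hr before luciferase detection reagent is added and luminescence is read after 12 min at room temperature. The HEK293 line carries constitutively active GLP-1R with a cAMP-responsive reporter.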
# On the % scale 0 is the no-effect control and ±100 the full control effect; potency means the concentration at half of the fitted maximal effect; tags describe the fitted curve by direction and shape.
# UniProt P43220, sequence (P43220 whole entry, looked up): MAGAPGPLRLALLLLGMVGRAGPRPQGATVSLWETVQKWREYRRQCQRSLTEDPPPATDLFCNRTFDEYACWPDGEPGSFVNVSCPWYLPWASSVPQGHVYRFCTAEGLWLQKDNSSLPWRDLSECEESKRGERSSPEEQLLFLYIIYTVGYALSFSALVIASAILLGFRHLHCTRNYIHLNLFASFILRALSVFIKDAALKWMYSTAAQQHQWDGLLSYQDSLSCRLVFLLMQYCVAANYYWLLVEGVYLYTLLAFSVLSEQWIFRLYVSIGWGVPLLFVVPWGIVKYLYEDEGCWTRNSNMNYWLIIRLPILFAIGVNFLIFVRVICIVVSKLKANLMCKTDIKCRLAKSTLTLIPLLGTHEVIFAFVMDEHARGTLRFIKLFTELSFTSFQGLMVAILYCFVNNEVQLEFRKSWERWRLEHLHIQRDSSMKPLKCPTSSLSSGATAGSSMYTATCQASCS
SMILES,Potency,"activity change, negative = inhibition"
O=C(/C=C/c1c(F)cccc1Cl)N1CCc2ccccc2C1,"inconclusive [inhibitor, single point]",
COc1ccc(C(=O)O/N=C(\N)c2ccccc2)cc1,"inconclusive [inhibitor, partial curve]",
COc1ccc(C(CNC(=O)c2cccc(S(=O)(=O)N3CCCc4ccccc43)c2)N(C)C)cc1 (stereo not given),"inconclusive [inhibitor, partial curve, poor fit]",
CCc1ccccc1NC(=O)NC(C)c1ccc2c(c1)OCO2 (stereo not given),"inconclusive [inhibitor, full curve, poor fit]",
CCCOC(=O)c1ccc(-c2c(C)noc2-c2ccc(OC)cc2O)o1,"inconclusive [inhibitor, partial curve, poor fit]",
CC(=O)Nc1ccc(C=NNC(=O)CCCC(=O)NN=Cc2ccc(NC(C)=O)cc2)cc1,"inconclusive [inhibitor, single point]",
CC(=O)c1ccc(NC(=O)c2cc3ccccc3o2)cc1,"inconclusive [inhibitor, single point]",
Oc1cccnc1CN1CCCCC1,,inactive: 6.67%
CC1(c2cccc3ccccc23)OC(=O)c2ccccc21 (stereo not given),"inconclusive [inhibitor, single point]",
CN(C)CCCN(C(=O)COc1ccccc1)c1nc2cc3c(cc2s1)OCO3,"inconclusive [inhibitor, single point]",
Cc1ccc(Nc2nnc(-c3ccc(C)c(S(N)(=O)=O)c3)c3ccccc23)cc1,"inconclusive [inhibitor, partial curve, poor fit]",
CC(C(=O)N1CCc2ccccc21)N1CCN(S(=O)(=O)c2ccc(C(F)(F)F)cc2)CC1 (stereo not given),"inconclusive [inhibitor, partial curve, poor fit]",
Cc1cc(C)n(-c2nc(NCC(C)O)c3c4c(sc3n2)CCCC4)n1 (stereo not given),active: 2.82 µM,
Cc1ccc(NC(=O)CS(=O)CC(=O)NC23CC4CC(CC(C4)C2)C3)cc1 (stereo not given),"inconclusive [inhibitor, partial curve, poor fit]",
COc1ccccc1N1CCN(C(=O)c2cnn(-c3ccc(F)cc3F)c2C2CCNCC2)CC1,"inconclusive [inhibitor, single point]",
O=C(Cc1ccccc1)NC(c1ccco1)c1c(O)ccc2ccccc12 (stereo not given),"inconclusive [inhibitor, single point]",
CCCCN1C(=O)N(c2nnc(C(C)(C)C)s2)C(O)C1c1ccc(C)cc1 (stereo not given),"inconclusive [inhibitor, partial curve, poor fit]",
COc1ccc(S(=O)(=O)Nc2cccc3c2O[C@H](CN(C)Cc2ccc(Cl)c(Cl)c2)[C@@H](C)CN([C@H](C)CO)C3=O)cc1,"inconclusive [inhibitor, single point]",
O=C(NCC(c1ccco1)N1CCc2ccccc21)c1ccccc1Br (stereo not given),"inconclusive [inhibitor, single point]",
O=C(Nc1ncc(Cc2ccccc2)s1)c1cccs1,"inconclusive [inhibitor, single point]",

SMILES,Potency,"activity change, negative = inhibition"
CCN1CCc2c(C#N)c(N3CCCCC3)nc(N3CCOCC3)c2C1,"inconclusive [inhibitor, single point]",
O=C(Nc1nnc([C@@H]2C[C@H](O)[C@@H](CO)O2)s1)c1ccccc1Cl,,inactive: 14.4%
C[C@@H](NC(=O)c1ncn(Cc2ccccc2)c1C(=O)N[C@H](C)c1ccccc1)c1ccccc1,"inconclusive [inhibitor, partial curve, poor fit]",
CC(C)(C)OC(=O)C[C@@H]1C/C=C\C[C@@H](CC(=O)N(CCO)Cc2ccccc2)C(=O)N[C@@H](c2ccccc2)COC1=O,"inconclusive [inhibitor, single point]",
COc1ccccc1Nc1nc(C)c(C(=O)Nc2ccccc2)s1,"inconclusive [inhibitor, partial curve, poor fit]",
O=C(CCc1nc2ccccc2c(=O)[nH]1)N1CCN(S(=O)(=O)c2ccccc2Br)CC1,"inconclusive [inhibitor, partial curve]",
CCN(CC)c1nc(N)c2c(N)nc3c(c2c1C#N)CC(c1ccccc1)O3 (stereo not given),,inactive: -58.4%
CC(=O)NC(c1cccc(F)c1)c1nc(-c2ccoc2)cs1 (stereo not given),,inactive: -17.8%
CCN(CC(=O)NCc1ccc(Cl)cc1)C(=O)COc1cccc(C(F)(F)F)c1,"inconclusive [inhibitor, single point]",
Cc1snc(S(=O)(=O)/C(C#N)=N/Nc2cccc(C(F)(F)F)c2)c1C#N,"inconclusive [inhibitor, single point]",
Cc1ccc(C(=O)O/N=C(\N)c2ccccc2)c(Cl)c1,"inconclusive [inhibitor, partial curve]",
O=C1OC(C(=O)Nc2cc(C(F)(F)F)ccc2Cl)Cc2ccccc21 (stereo not given),,inactive: 2.58%
CCN1CCN(c2ccc([N+](=O)[O-])cc2C(=O)c2ccc(Cl)cc2)CC1,"inconclusive [inhibitor, partial curve, poor fit]",
COCCN(C(=O)c1ccccc1F)c1nnc(-c2ccc(OC)cc2)s1,"inconclusive [inhibitor, partial curve, poor fit]",
CCOC(=O)c1cc2c(C)nn(-c3ccccc3)c2s1,,inactive: -7.79%
COc1ccc(Cc2nc3ccc(C(=O)NCc4ccccc4Cl)cc3o2)cc1,"inconclusive [inhibitor, partial curve, poor fit]",
Cc1ccc(C(=O)OCC(=O)c2c[nH]c3ccccc23)cc1S(=O)(=O)N1CCCCC1,"inconclusive [inhibitor, partial curve, poor fit]",
CCc1noc(C)c1C(=O)N1CCSC1=Nc1cccc(Cl)c1C,"inconclusive [inhibitor, single point]",
O=C(CSc1nc(-c2ccc(F)cc2)[nH]c1-c1ccc(F)cc1)Nc1ccc2c(c1)OCCO2,"inconclusive [inhibitor, partial curve, poor fit]",
COCCOC(=O)c1c(-c2ccccc2)c(-c2ccccc2)nn(C)c1=O,,inactive: 4.72%

SMILES,Potency,"activity change, negative = inhibition"
CCN(C(=O)C1CCCN(c2nc(-c3ccc(OC)cc3)no2)C1)c1ccccc1F (stereo not given),"inconclusive [inhibitor, single point]",
COc1ccc(NS(=O)(=O)c2cccc(NC(=O)NC3CCCCC3)c2)cc1,"inconclusive [inhibitor, partial curve, poor fit]",
COc1ccc(NC(=O)C2CCCN(c3nnc(C)c4c(C)n(-c5ccccc5)nc34)C2)cc1Cl (stereo not given),"inconclusive [inhibitor, single point]",
Cc1cccc(CCN=c2c([N+](=O)[O-])nn(-c3ccccc3)n2O)c1,"inconclusive [inhibitor, single point]",
O=C(C1CCCC1)N1CCC(CC2CC(c3cccc(Br)c3)=NO2)(C(=O)NCC2CCCCC2)CC1 (stereo not given),"inconclusive [inhibitor, partial curve, poor fit]",
COc1ccc(CCNc2c3ccccc3nc3ccccc23)cc1OC,"inconclusive [inhibitor, single point]",
COc1ccccc1-n1c(SCC(=O)NCc2ccc3c(c2)OCO3)nc2cc([N+](=O)[O-])ccc21,"inconclusive [inhibitor, partial curve]",
O=C(Nc1ccc(-c2noc(CCc3ccccc3)n2)cc1)c1ccco1,"inconclusive [inhibitor, partial curve, poor fit]",
C=CCN(c1ccccc1OC)S(=O)(=O)c1cccc(C(=O)OCC(=O)c2c[nH]c3ccccc23)c1,active: 5.01 µM,
CN(Cc1ccccc1)S(=O)(=O)c1ccc(C(=O)Nc2nnc(C3CC3)o2)cc1,"inconclusive [inhibitor, single point]",
CCc1ccccc1NC(=O)Cn1c(=O)n(Cc2ccc(OC)cc2)c(=O)c2oc3ccccc3c21,,inactive: 12.9%
COc1ccccc1N1CCN(C(=O)c2ccc3[nH]c4c(c3c2)CC(C)CC4)CC1 (stereo not given),"inconclusive [inhibitor, partial curve, poor fit]",
CCOc1ccc(CC(=O)Nc2c(C(=O)c3ccccc3)oc3ccc(OC)cc23)cc1OCC,,inactive: 1.08%
Cc1oc(-c2ccc(Cl)cc2)nc1CN1CCCN(C(=O)c2ccco2)CC1,"inconclusive [inhibitor, partial curve, poor fit]",
COc1cccc(NC(=O)CN(C)C(C)C(=O)NC(=O)NC2CCCCC2)c1 (stereo not given),"inconclusive [inhibitor, single point]",
O=C(Nc1nnc(S(=O)(=O)N2CCc3ccccc32)s1)c1cccc(Cl)c1,"inconclusive [inhibitor, partial curve, poor fit]",
CC(C)NC(=O)c1ccc2sc([C@H]3C[C@H](O)[C@@H](CO)O3)nc2c1,,inactive: 28.5%
COC(=O)c1sccc1NC(=S)N1CCC(C)CC1,"inconclusive [inhibitor, partial curve, poor fit]",
Cc1ccccc1/C=N/Nc1nc2ccccc2[nH]1,"inconclusive [inhibitor, single point]",
CCc1ccc(NC(=O)CCCN2C(=O)C3CC=CCC3C2=O)cc1 (stereo not given),"inconclusive [inhibitor, single point]",
